# Assay results: PubChem BioAssay AID1671194 (National Center for Advancing Translational Sciences (NCATS), 2021)
# Out of some 140,000 compounds screened, about 240 (0.17%) were called active. This list was built around the results that the source calls inconclusive (neither active nor inactive); the mix of calls is not that of the screen. Calls come from the whole dose curve; as a rule, active = well fitted inhibition curve with a large enough effect; inconclusive = small, poorly fitted or top-dose-only effect; inactive = no such curve, though single readings can be large or run the other way. Potencies beside an inconclusive call are fits to weak or partial responses and may not hold up.
# Test: Primary qHTS assay for inhibitors of alpha-synuclein gene (SNCA) expression; note: nearly all actives have a fitted effect of over 45% in size
# Conditions: HEK-293 SNCA-luciferase knock-in, luminescence, 24 h; series mostly up to 57.2 µM
# Potency is the fitted concentration of half-maximal effect; tags give direction and shape of the fitted curve.
row,Structure (SMILES),Potency
1,COc1ccc(CNC(=O)CN(c2ccccc2OC)S(=O)(=O)c2ccc(C)cc2)cc1,"inconclusive: 39.8 µM [inhibitor, single point]"
2,O=S(=O)(NCc1ccccc1)c1ccc(-c2cnc(C3CC3)o2)cc1,"inconclusive: 3.98 µM [inhibitor, full curve, poor fit]"
3,Cc1nn2c(c1-c1cccnc1N1CCOCC1)N(C(=O)Cc1cccc(Cl)c1)CCC2,inactive
4,Cc1c(CC(=O)N2CCOCC2)c2c(n1Cc1ccc(F)cc1)CCCC2=O,"inconclusive: 39.8 µM [inhibitor, single point]"
5,Cc1ccccc1-c1cnc2[nH]cc(CC(=O)NCc3ccccc3)c2c1,"inconclusive: 11.2 µM [inhibitor, full curve, poor fit]"
6,COc1ccc2[nH]c3c(c2c1)CCN(C)C31CCN(C(=O)Cc2ccncc2)CC1,"inconclusive: 22.4 µM [inhibitor, single point]"
7,CCCC(O)c1nc2ccccc2n1CCCCOc1ccc(OC)cc1 (stereo unspecified),"inconclusive: 17.8 µM [inhibitor, single point]"
8,CS(=O)(=O)N1CCC(C2CCN(C(=O)CC3=CCCCC3)C2)CC1 (stereo unspecified),"inconclusive: 8.91 µM [inhibitor, single point]"
9,CCN1C(C(=O)c2ccccc2)=C(OC(=O)C(C)C)c2ccccc2S1(=O)=O,"inconclusive: 39.8 µM [inhibitor, single point]"
10,CCCOc1cccc(C(=O)Nc2ccc(-c3nc4ccccc4s3)c(Cl)c2)c1,inactive
11,CCc1nc2ccccc2n1CCCCOc1ccccc1C,"inconclusive: 20 µM [inhibitor, partial curve]"
12,CCOCC(=O)N1CCc2nc3cc(-c4ccc(OC)cc4)[nH]n3c(=O)c2C1,"inconclusive: 31.6 µM [inhibitor, single point]"
13,NC(=O)[C@H](Cc1ccc(O)cc1)NC(=O)C1=C[C@@H](NC(=O)c2cccnc2)[C@@H](O)[C@H](O)C1,"inconclusive: 8.91 µM [inhibitor, single point]"
14,COC1CCOC2(CCN(C(=O)c3cccc(F)c3)CC2)C1 (stereo unspecified),"inconclusive: 1.26 µM [inhibitor, full curve, poor fit]"
15,COc1ncccc1-c1csc(CN2CCCC(C)(NC(C)=O)C2)c1 (stereo unspecified),inactive
16,Cc1cccc(-c2nc(SCC(=O)Nc3cccc(C(F)(F)F)c3)n3[nH]c(=O)cc3n2)c1,"inconclusive: 17.8 µM [inhibitor, single point]"
17,Cc1ccc(S(=O)(=O)NC[C@H]2O[C@H](Cc3cc(-c4cccc(O)c4)on3)CC[C@@H]2O)cc1,"inconclusive: 20 µM [inhibitor, single point]"
18,COc1ccc(-c2ccnc(N[C@H]3CO[C@H]4[C@@H]3OC[C@H]4OC(=O)Nc3cccc(C(C)=O)c3)n2)cc1,"inconclusive: 39.8 µM [inhibitor, single point]"
19,O=C(C[C@@H]1O[C@H](CNCc2cccc(Cl)c2)[C@@H](O)[C@H]1O)N1CCN(c2ccc(F)cc2)CC1,inactive
20,O=C(c1ccc(Cl)cc1)N1CCN(c2ccc([N+](=O)[O-])c3ncccc23)CC1,inactive
21,COc1ccc(C(=O)N[C@H]2COC[C@H]2Cc2cc(C)no2)c(F)c1F,inactive

row,Structure (SMILES),Potency
1,CCN(CC)C(=O)c1sc2c(c1C)c(=O)n(-c1ccccc1)c(=O)n2Cc1cc(=O)n2ccccc2n1,"inconclusive: 2.51 µM [inhibitor, full curve, poor fit]"
2,COCCCNC(=O)C1CCN(C(=O)c2ncn3c2COC(c2ccc(OC)cc2)C3)CC1 (stereo unspecified),"inconclusive: 39.8 µM [inhibitor, partial curve, poor fit]"
3,NC(=O)C1CCN(CC[C@H]2CN(C(=O)Nc3ccc(C(F)(F)F)cc3)CC[C@H]2CC(=O)O)CC1,"inconclusive: 14.1 µM [inhibitor, partial curve, poor fit]"
4,CC(C)c1ccc(CN2CCc3ncc(C(=O)NCc4ccccc4)n3CC2)cc1,"inconclusive: 14.1 µM [inhibitor, partial curve, poor fit]"
5,Cc1ccc(OCc2nc(C3CCCCN3C(=O)CCCc3nc(-c4ccc(C)cc4)no3)no2)cc1 (stereo unspecified),"inconclusive: 35.5 µM [inhibitor, partial curve, poor fit]"
6,COc1ccccc1NC(=O)CCn1nc(-c2ccccc2)c2ccccc2c1=O,"inconclusive: 39.8 µM [inhibitor, single point]"
7,CN(C(=O)c1ccc2c(c1)N(Cc1ccccc1F)C(=O)c1ccccc1S2)C1CCCCC1,"inconclusive: 15.8 µM [inhibitor, single point]"
8,Cc1nc2cnc(Oc3cccc(Cl)c3)nc2n(C[C@H]2CCCO2)c1=O,"inconclusive: 39.8 µM [inhibitor, single point]"
9,O=C(NC[C@H]1O[C@@H](CC(=O)N2CCN(c3ccccn3)CC2)[C@H](O)[C@@H]1O)Nc1ccccc1,"inconclusive: 8.91 µM [inhibitor, full curve, poor fit]"
10,O=C([C@@H]1C[C@H](c2ccc(F)cc2)N(Cc2ccccc2Cl)C1)N1CC(O)C1,"inconclusive: 50.1 µM [inhibitor, single point]"
11,CCCCOc1c(C(=O)c2c(F)cc(C)cc2F)cnc2n[nH]cc12,"inconclusive: 0.271 µM [inhibitor, full curve]"
12,COCCN1Cc2ccc(Nc3cccnc3)nc2C(C)(C(=O)Nc2cccc(OC)c2)C1 (stereo unspecified),inactive
13,COc1ccccc1-c1cc(NCc2cccnc2)c2onc(C)c2n1,"inconclusive: 12.6 µM [inhibitor, single point]"
14,COc1cccc(-c2nc(-c3c(C)noc3C)cc3[nH]c(C)cc23)c1OC,inactive
15,Cc1ccc(Nc2ccnc(N3CCC(NC(=O)c4ccccc4C)CC3)n2)cc1,"inconclusive: 39.8 µM [inhibitor, single point]"
16,COCC(=O)N1CCC(Cc2nc(C3CCOCC3)no2)CC1,"inconclusive: 1.26 µM [inhibitor, full curve, poor fit]"
17,CC(=O)N1CCC2(CC1)CN(C(=O)CCCNC(N)=O)Cc1ccccc1O2,"inconclusive: 39.8 µM [inhibitor, single point]"
18,COC[C@@H]1CN(Cc2ccc3[nH]ccc3c2)C[C@H]1c1nc(C)no1,inactive
19,COc1ccc(-c2cc(N3CCN(C(=O)c4cc(F)ccc4Cl)CC3)n[nH]2)cc1,"inconclusive: 8.91 µM [inhibitor, partial curve, poor fit]"
20,O=C1NC2(CCN(Cc3ccc(F)cc3)CC2)Oc2ccccc21,inactive
21,CCc1ccc(C(=O)N2CCCC(c3noc(-c4cc5c(=O)[nH]c(C)cn5n4)n3)C2)cc1 (stereo unspecified),inactive

row,Structure (SMILES),Potency
1,COc1cccc(CNC(=O)C(C)n2ccc3cc(S(=O)(=O)N4CCCCCC4)ccc32)c1 (stereo unspecified),"inconclusive: 22.4 µM [inhibitor, single point]"
2,CN(Cc1ccccc1)C(=O)c1ccc2c(c1)NC(C)(CCCCN1CCOCC1)CO2 (stereo unspecified),"inconclusive: 15.8 µM [inhibitor, partial curve, poor fit]"
3,c1ccc(CC2CCN(Cc3nnc4cc(-c5nc(-c6ccccc6)no5)ccn34)CC2)cc1,inactive
4,COc1cccc(CN2CCCOCCNC(=O)CC2)c1OC,inactive
5,CN(Cc1ccccc1)c1ncc2c(n1)CC(C)(C)CC2NC1CCOCC1 (stereo unspecified),"inconclusive: 5.62 µM [inhibitor, single point]"
6,COc1ccccc1C(=O)N1CCC(c2n[nH]c(=O)n2Cc2ccc(F)cc2)CC1,inactive
7,O=C(Cn1nc2n(c1=O)CCCC2)N1CCN(c2ccccc2)CC1,"inconclusive: 4.47 µM [inhibitor, full curve, poor fit]"
8,COCCOCC(=O)N1CC(Oc2ccc(-c3noc(-c4ccccc4)n3)cc2)C1,inactive
9,CNC(=O)c1cccc(-c2ccc3c(N4CCOC[C@H]4C)nc(N4CCOC[C@H]4C)nc3n2)c1,"inconclusive: 1.36 µM [inhibitor, full curve, poor fit]"
10,Cc1ccc2nc(-c3ccncc3)c(Nc3ccccc3C)n2c1,"inconclusive: 5.62 µM [inhibitor, full curve, poor fit]"
11,COc1cccc(-c2noc(CC3CCN(C(=O)c4ccc(F)c(F)c4)CC3)n2)c1,inactive
12,NC(=O)c1cccnc1N1CCN(CC2(O)CNCCOC2)CC1 (stereo unspecified),"inconclusive: 5.62 µM [inhibitor, partial curve]"
13,COc1ccc(-c2noc(-c3nc(-c4cccnc4)no3)n2)cc1,inactive
14,CCOC(=O)c1c(NC(=O)C(C)Sc2cn(CCNC(=O)c3ccc(OC)c(OC)c3)c3ccccc23)sc2c1CCC2 (stereo unspecified),"inconclusive: 0.178 µM [inhibitor, partial curve, poor fit]"
15,COc1ccccc1CN1CCCC(c2[nH]ccc2C(N)=O)C1 (stereo unspecified),"inconclusive: 1.78 µM [inhibitor, full curve, poor fit]"
16,CCc1nc2c(=O)n(CC(=O)N3CCN(c4cc(C)ccc4C)CC3)nc(C)c2s1,"inconclusive: 20 µM [inhibitor, partial curve, poor fit]"
17,Cc1ccc(-c2nnc(Nc3ccc(O)cc3)c3ccccc23)cc1S(=O)(=O)NCc1nc2ccccc2[nH]1,"inconclusive: 7.08 µM [inhibitor, single point]"
18,O=C(NCc1ccc(Cl)nc1)c1cccn2nccc12,"inconclusive: 3.55 µM [inhibitor, partial curve, poor fit]"
19,Cc1cc(Nc2sc(C(=O)c3ccc(F)cc3)c(N)c2C(=O)Nc2ccc(F)cc2)ccc1Cl,"inconclusive: 39.8 µM [inhibitor, single point]"
